From PubChem BioAssay AID686978 (National Center for Advancing Translational Sciences (NCATS), 2013)
Values joined by “and” are separate entries in the source; they are usually repeats but may differ in a detail not shown here. Equal values may be shown once. Screen size: about 420,000 compounds; about 64,000 (15%) were called active. The shares of active, inactive and inconclusive entries below differ from those in the screen. The call rests on the fitted dose curve; in most records, active means well fitted inhibition curve with a large enough effect; inconclusive means small, poorly fitted or top-dose-only effect; inactive means flat fitted curve, though single readings scatter. Where the call is inconclusive, the potency comes from a doubtful curve fit.

assay: qHTS for Inhibitors of human tyrosyl-DNA phosphodiesterase 1 (TDP1): qHTS in cells in absence of CPT; details: DT40 Tdp1-/- hTDP1 cells, no CPT, ATP luminescence, 48 h; activity change, negative = growth inhibition: at 46.2 µM (top of the series) unless noted; further: nearly all actives have a fitted effect of over 55% in size
Procedure, shortened: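 Chicken DT40 Tdp1-/- cells complemented with human TDP1, screened without camptothecin (DMSO vehicle only), 400 cells/well. Compounds pin-transferred, cells incubated at 37 °C for at least 48 hr. Growth read as ATP-dependent luminescence (CellTiter-Glo, 30 min at RT).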
On the % scale 0 is the no-effect control and ±100 the full control effect; potency means the concentration at half of the fitted maximal effect; tags describe the fitted curve by direction and shape.

SMILES | activity change, negative = growth inhibition | Potency
Cc1nc2ccc(C(=O)NCCCn3ccnc3)cn2c1N(C)CC1CCCCC1 | inconclusive: -31.8% [inhibitor] | –
COCCn1nc2cc(C(=O)NCC34CC5CC(CC(C5)C3)C4)ccc2c1OC | – | inconclusive: 20.6 µM [inhibitor, single point]
COC(=O)[C@@]12CCCCN1[C@H](c1ccc(-c3ccc(C(C)=O)cc3)cc1)[C@H]1C(=O)N(C)C(=O)[C@H]12 | – | active: 14.6 µM
Cc1ccc(CNC(=O)C(=O)NCC2OCCCN2S(=O)(=O)c2ccc(F)cc2)cc1 (stereo not drawn) | – | inactive
COc1ccc(C(=O)NC(CCSC)C(=O)N2CCCCCC2)cc1 (stereo not drawn) | – | inactive
O=C(Cc1cccc(C(F)(F)F)c1)Nc1cccc(S(=O)(=O)N2CCCC2)c1 | – | inconclusive: 29.1 µM [inhibitor, single point]
O=C(NCC(c1ccc(Cl)cc1)N1CCCCC1)c1ccccc1 (stereo not drawn) | – | active: 14.6 µM
CCCCOc1ccc(C(=O)OCC(=O)NC2CCCC2)cc1 | – | inconclusive: 20.6 µM [inhibitor, single point]
CCCOc1ccc(C(=O)N(Cc2cccs2)C2CCS(=O)(=O)C2)cc1 (stereo not drawn) | – | inconclusive: 18.4 µM [inhibitor, single point] and inconclusive: 10.3 µM [inhibitor, partial curve]
NC(c1csc(Nc2ccc(C(=O)NCCCO)cn2)n1)C1CCCCC1 (stereo not drawn) | – | inconclusive: 16.4 µM [inhibitor, single point]
COc1ccc(CNC(=O)Cn2nc([N+](=O)[O-])c(Br)c2C)cc1 | – | inactive
N#Cc1ccccc1CSc1nc(N2CCCCC2)nc(N2CCCCC2)n1 | – | inconclusive: 29.1 µM [inhibitor, single point]
CC(=O)Nc1cccc(C(=O)NC2CCCc3c2cnn3-c2cc(C)cc(C)c2)c1 (stereo not drawn) | – | inactive
COc1ccc(-n2nc(C(=O)NCC(=O)NC(C)C)c3ccccc3c2=O)cc1Cl | inconclusive: -38.7% [inhibitor] | –
CC1CCN(C(=O)Nc2cccc(NC(=O)N3CCC(C)CC3)c2)CC1 | – | active: 5.17 µM
O=C(NCCn1cc(SCC(=O)N2CCOCC2)c2ccccc21)c1ccccc1 | – | inconclusive: 29.1 µM [inhibitor, single point]
CC(=O)N1c2ccc(S(=O)(=O)N3CCCCC3)cc2CC1C(=O)NCc1cccc(Cl)c1 (stereo not drawn) | – | inconclusive: 10.3 µM [inhibitor, partial curve]
CCC(C)NC(=O)c1ccccc1NC(=O)c1ccccc1N(C)S(C)(=O)=O (stereo not drawn) | – | inactive
COc1ccccc1NC(=O)C1=C(C)NC2=C(C(=O)CC(c3ccc(OC)c(OC)c3)C2)C1c1coc2ccccc2c1=O (stereo not drawn) | – | inconclusive: 29.1 µM [inhibitor, single point]
N#CC1(NC(=O)CSc2nc3ncc(Cl)cc3[nH]2)CCCCC1 | – | inactive
CCOC(=O)N1CCC(N(C(=O)Nc2ccccc2)C(C)CC)CC1 (stereo not drawn) | – | inconclusive: 20.6 µM [inhibitor, partial curve]
CCN(CC)C(=O)C(Sc1ccccc1)c1ccccc1 (stereo not drawn) | – | inconclusive: 8.2 µM [inhibitor, partial curve]

SMILES | activity change, negative = growth inhibition | Potency
CCOC(=O)c1c(NC(=O)CSc2nnc3c(Cl)cc(Cl)cn23)sc2c1CCC2 | – | inconclusive: 18.4 µM [inhibitor, single point]
Brc1ccccc1-c1nnc(COc2ncnc3c2cnn3-c2ccccc2)o1 | – | inconclusive: 9.2 µM [inhibitor, partial curve, poor fit]
CSc1ccc(CCNS(=O)(=O)c2csc(C(N)=O)c2)cc1 | – | inactive
COc1ccc(-c2cc(C)no2)cc1S(=O)(=O)Nc1ccc(NC(C)=O)cc1 | – | inconclusive: 23.1 µM [inhibitor, partial curve, poor fit]
NC(=O)C1(N2CCCCC2)CCN(C(=O)Nc2ccc(Cl)c(Cl)c2)CC1 | – | inconclusive: 29.1 µM [inhibitor, single point]
O=C(O)/C=C\C(=O)Nc1ccccc1C(=O)N1CCC(O)(c2ccc(Cl)cc2)CC1 | inconclusive: -31.3% [inhibitor] | –
O=C(c1cccs1)N(Cc1ccco1)Cc1cc2ccccc2[nH]c1=O | – | inconclusive: 25.9 µM [inhibitor, single point]
COc1ccc2oc(C(=O)N3CCN(S(=O)(=O)c4ccc(F)cc4)CC3)c(C)c2c1 | – | inconclusive: 29.1 µM [inhibitor, single point]
CCCn1c(N)c(N(CCOC)C(=O)CCC2CCCCC2)c(=O)[nH]c1=O | – | inactive
Cc1sc2ncn(-n3c(C)ccc3C)c(=O)c2c1C | – | inconclusive: 14.6 µM [inhibitor, single point]
COc1ccc(C(=O)c2c3ccccc3[n+]([O-])n2Cc2ccc(C(N)=O)cc2)cc1 | inconclusive: -33.6% [inhibitor] | –
Cc1ccc(C2CC(c3cccs3)=NN2C(=O)c2ccc(Br)o2)cc1 (stereo not drawn) | – | inconclusive: 29.1 µM [inhibitor, single point]
Cc1ccc(C(=O)Nc2ccc(N3CCOCC3)cc2)cc1S(=O)(=O)N1CCCCC1 | – | inconclusive: 18.4 µM [inhibitor, partial curve, poor fit]
CCN(C(=O)CSc1nnc(C)n1-c1ccc(C)cc1)c1c(N)n(Cc2ccccc2)c(=O)[nH]c1=O | – | inactive
Cc1ccc2nc(SC(Cc3cc(Cl)ccc3Cl)C(=O)O)[nH]c2c1 (stereo not drawn) | – | inconclusive: 25.9 µM [inhibitor, single point]
CCCSc1nc2c(cnn2-c2ccc(Cl)cc2)c(=O)[nH]1 | – | inconclusive: 23.1 µM [inhibitor, single point]
O=C(N[C@H]1CC[C@H](CCNC(=O)C2CC2)O[C@@H]1CO)c1ccccn1 | – | inactive
COc1ccc(C2CC(=O)Oc3cc(O)ccc32)cc1 (stereo not drawn) | – | inactive
COc1ccc(CCCNC(=O)C2Cc3c(-c4cccc(NC(C)=O)c4)ccnc3O2)cc1 (stereo not drawn) | – | active: 3.66 µM
CCOc1ccc2c(c1)nc(SCC(=O)c1ccc(Br)s1)n2C | – | inconclusive: 29.1 µM [inhibitor, single point]
Cc1cc(NC(=O)Cn2nnc(-c3ccccc3N)n2)no1 | – | inconclusive: 32.6 µM [inhibitor, partial curve, poor fit]
